# The other results are listed elsewhere or left out.
# System: T1, C. trachomatis L2/434/Bu expressing GFP (CTL2-GFP)
# T1 construct: L2/434/Bu GFP intracellular growth in HeLa cells
# Set-up: species or system HeLa; C. trachomatis total inclusion area by high-content imaging, normalised to DMSO
# Details: total inclusion area; 28.5 h, 10 µM; inhibitor
# Method in brief: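 Bulk GFP and resorufin signals were read first. Wells were then fixed, stained with Hoechst and imaged to detect GFP inclusions and host nuclei. MICs followed the previously described calculation.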
row,SMILES,% of control remaining
1,Nc1ncc(-c2ccccc2O)nc1-c1ccc(O)cc1 [CBK115548],121.554
2,Cc1ccc(CNC(=O)C2CCN(S(=O)(=O)N3CCOCC3)CC2)cc1 [CBK294467],94.4048
3,O=C(CCC(=O)c1ccccc1)Nc1cc2ccccc2c(N2CCNCC2)n1 [CBK028418T],95.3076
4,Cn1c(=O)n(C)c2cc(CNc3nn[nH]n3)ccc21 [CBK270243],88.7875
5,CCOc1ccc2c(c1)cc(C(=O)N(C)CC(F)(F)F)n2C [CBK281509],104.473
6,C=CCOc1ccc(-c2nc3s/c(=C4\C(=O)N(Cc5ccccc5F)c5ccccc54)c(=O)n3n2)cc1 [CBK266615],96.9245
7,O=C(Nc1cccc2nsnc12)c1ccc(-c2ccc(Br)cc2)o1 [CBK263752],80.7056
8,CN(c1ccc(C(O)(C(F)(F)F)C(F)(F)F)cc1)S(=O)(=O)c1cccs1 [CBK067061],91.714
9,CC(=O)NC[C@H]1CN(c2ccc(C#N)c(C)c2)C(=O)O1 [CBK010393],39.062
10,O=C(NCCc1ccc(F)cc1)C1CN(C(=O)c2ccc3nsnc3c2)C1 [CBK285690],114.792
11,C[C@H](C(=O)N1CCCC1)C1CC[C@@]2(C)Cc3sc(NC(=O)C4CC4)nc3[C@@H](C)[C@@H]2[C@H]1O (some centres unmarked) [CBK289432],105.99
12,OC(CNc1nccnc1-c1ccsc1)COc1ccccc1 (centres unmarked) [CBK037057],94.1154
13,COc1ccc(CNC(=O)C2CCCN(c3nc4c(-c5ccc(C)cc5)csc4c(=O)[nH]3)C2)cc1 (centres unmarked) [CBK215530],87.3238
14,c1cnn(CC2CCCN2c2ncnc3sccc23)c1 (centres unmarked) [CBK304968],49.0452
15,CCCCNc1nnc(-c2cc(C)nn2C)s1 [CBK288019],97.1777
16,Cc1cc(NCC2(CO)CCOCC2)nc(N2CCCC2)n1 [CBK307005],35.6097
17,O=c1c2ccccc2c(-c2ccc(Cl)cc2)nn1-c1cc(N2CCNCC2)ccc1[N+](=O)[O-] [CBK265763],112.316
18,COc1cc(-c2nc(-c3ccc(Cl)cc3)c(-c3ccccc3)[nH]2)c([N+](=O)[O-])cc1OC [CBK264503],102.985
19,CCc1nc2ccccc2c(NC(=O)CN2CCCCCC2)c1C [CBK261580G],97.0253
20,COc1ccc([C@@]23CC[C@H](NC(=O)Nc4ccc(F)c(F)c4)C[C@@H]2N(Cc2ccccc2)CC3)cc1OC [CBK041333T],39.9104
21,O=C(NCCC1SC(NC2CC3C=CC2C3)=NC1=O)c1ccccc1Cl (centres unmarked) [CBK200062],84.2435
22,NC(=O)NC(Cc1c[nH]c2ccccc12)C(=O)O (centres unmarked) [CBK218895],114.887
23,COc1ccc(NC(=O)Nc2ccccc2C(N)=O)cc1OC [CBK267061],118.207
24,C=CCC1c2cccc(C(=O)O)c2C(=O)N1c1ccc(F)cc1 (centres unmarked) [CBK113158],89.8179
25,CCOC(=O)N1CCN(C(C(=O)O)c2c[nH]c3ccc(C)cc23)CC1 (centres unmarked) [CBK286632],90.0962

row,SMILES,% of control remaining
1,CN(C)Cc1cc(-c2ccc(CNC(=O)C3CC3)cc2)nn1C [CBK283470],80.3218
2,N#Cc1c(F)cccc1NCc1cccnc1 [CBK057053],76.5475
3,O=C(CN1CCN(C(c2ccccc2)c2ccccc2)CC1)Nc1c2c(nc3ccccc13)CCC2 [CBK278299G],115.515
4,CSCCC(NC(=O)C1CCC(C)CC1)C(=O)O (centres unmarked) [CBK286552],86.9978
5,O=C(O)c1nnn(-c2ccccc2)c1-c1ccncc1 [CBK288041],89.1076
6,CN(Cc1nc(-c2ccccc2)no1)C(=O)C1CC2(CCNCC2)CN1 (centres unmarked) [CBK306585],89.2397
7,CN(C)C(CNC(=O)Nc1cccc(C(=O)NC2CC2)c1)c1cccs1 (centres unmarked) [CBK305565],54.4962
8,CC(C)Nc1nccnc1Sc1cccs1 [CBK089490],99.3143
9,CCCC/C=C/c1cnc(N)c(-c2cccc(N)c2)n1 [CBK063954],126.307
10,CC(C)(C)C1=CC2=NC3(CCC3)C3C[C@@H](O)[C@@H](O)[C@]3(COCc3ccccc3)N2O1 (some centres unmarked) [CBK303260],91.4182
11,Cc1cccc(C)c1NC(=O)CN1CCCN(c2cc(OCCN3C(=O)CCC3=O)ncn2)CC1 [CBK083313T],109.501
12,COc1ccc(OCc2nc3ccccc3[nH]2)cc1 [CBK261030],100.973
13,c1ccc(CN2CC[C@H](c3nc4ncccc4[nH]3)C2)cc1 [CBK289383],94.2816
14,Cc1cc(/C=C2\NC(=O)NC2=O)c(C)n1-c1ccc(OCc2ccccc2F)cc1 [CBK264842],112.009
15,O=C(O)CCC(=O)NCC1(c2ccccc2)CCCC1 [CBK286679],60.8652
16,Cc1nc2c(c(=O)[nH]1)CC[C@@H]1CN(C(=O)Cc3ccsc3)C[C@H]21 [CBK284411],63.1536
17,O=C(N/N=C/C=C/c1ccc([N+](=O)[O-])cc1)C(O)c1ccccc1 (centres unmarked) [CBK261373],111.309
18,CC(C)(c1ccccc1)c1ccc(OCCCCn2cncn2)cc1 [CBK266405],74.5977
19,Cc1cc(Cl)ccc1NC(=O)CN1CCN(Cc2ccccc2)CC1 [CBK269438],45.9458
20,Cn1ccnc1C1(O)CC2CCC(C1)N2C(=O)c1ccc(Cl)cc1 (centres unmarked) [CBK284087],97.8621
21,O=C(CCCn1ccnc1)NCC1(c2cccc(F)c2)CCCC1 [CBK281500],78.2203
22,Cc1cc(CNC(=O)C2(c3ccccc3)CCCC2)no1 [CBK149518],94.8815
23,Nc1ncc2ncn([C@H]3C[C@@H](O)[C@@H](CO)O3)c2n1 [CBK201303],98.5294
24,CCN1C(=O)C2(CC(=O)N(CCCCC(C)C)C2=O)c2cc(C)ccc21 (centres unmarked) [CBK075173],95.7169
25,O=C(COc1ccc(F)cc1)N1CCCC1c1cccc(Cc2ccccc2)n1 (centres unmarked) [CBK286214],77.434

# From article PMC12040169 (PLOS Biology, 2025)
